Results as given in article PMC4336329 (PLoS ONE, 2015).
Among all 310,000 compounds or so, about 2,200 (0.71%) showed an effect of 50% or more. The effect is printed as a negative number. The list shows a part of the results.

Each compound was assayed against human ether-à-go-go-related gene (hERG) potassium channel (human, UniProt Q12809) (assay: primary screen, population patch clamp on CHO cells stably expressing hERG).
human ether-à-go-go-related gene (hERG) potassium channel, sequence (Q12809 whole entry, looked up): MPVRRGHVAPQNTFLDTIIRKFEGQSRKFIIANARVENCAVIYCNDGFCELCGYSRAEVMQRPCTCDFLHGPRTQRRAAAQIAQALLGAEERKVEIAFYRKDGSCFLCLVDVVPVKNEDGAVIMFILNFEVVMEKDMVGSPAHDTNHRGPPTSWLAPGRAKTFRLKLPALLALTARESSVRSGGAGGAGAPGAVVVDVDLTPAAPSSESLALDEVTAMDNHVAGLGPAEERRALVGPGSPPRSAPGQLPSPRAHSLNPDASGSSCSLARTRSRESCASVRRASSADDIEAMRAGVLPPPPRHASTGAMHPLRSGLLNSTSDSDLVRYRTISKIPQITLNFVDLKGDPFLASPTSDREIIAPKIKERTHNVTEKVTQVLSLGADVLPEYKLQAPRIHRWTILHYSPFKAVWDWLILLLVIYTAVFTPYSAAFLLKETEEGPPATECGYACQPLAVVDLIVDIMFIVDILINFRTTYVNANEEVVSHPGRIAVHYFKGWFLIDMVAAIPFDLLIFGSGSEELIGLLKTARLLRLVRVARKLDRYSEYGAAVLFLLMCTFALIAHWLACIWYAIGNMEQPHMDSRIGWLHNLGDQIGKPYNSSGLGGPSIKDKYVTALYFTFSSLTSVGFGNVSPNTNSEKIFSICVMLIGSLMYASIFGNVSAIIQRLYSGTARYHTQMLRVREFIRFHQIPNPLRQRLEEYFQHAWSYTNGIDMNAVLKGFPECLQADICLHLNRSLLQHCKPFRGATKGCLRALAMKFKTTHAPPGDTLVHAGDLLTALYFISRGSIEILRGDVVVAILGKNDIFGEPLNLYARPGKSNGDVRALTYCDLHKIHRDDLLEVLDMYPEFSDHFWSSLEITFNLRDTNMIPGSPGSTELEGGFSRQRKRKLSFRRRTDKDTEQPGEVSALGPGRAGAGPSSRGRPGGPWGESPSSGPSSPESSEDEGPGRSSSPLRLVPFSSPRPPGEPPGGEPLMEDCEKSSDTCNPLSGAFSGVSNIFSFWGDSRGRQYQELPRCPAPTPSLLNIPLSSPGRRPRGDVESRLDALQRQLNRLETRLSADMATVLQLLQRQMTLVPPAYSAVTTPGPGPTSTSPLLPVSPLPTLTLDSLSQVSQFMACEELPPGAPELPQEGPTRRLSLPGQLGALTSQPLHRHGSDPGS

SMILES	hERG current change (%, negative = inhibition) at 1uM [%]
Cc1ccc(C(=O)Nc2ccccc2Oc2ccccc2)cc1[N+](=O)[O-]	-7.55
CC(=O)N1CCc2cc(S(=O)(=O)NC(C(=O)N3CCN(c4ccccc4F)CC3)C(C)C)ccc21 (centres unmarked)	9.08
CC1(C)CC(=O)C2=C(C1)N(c1cccc(O)c1)C1=C(C2)C(=O)CC(C)(C)C1	-1.35
O=C(NCCc1ccccc1)c1ccccc1C(=O)NCCc1ccccc1	14.4
O=C1/C(=C\c2cccnc2)Sc2ccccc21	9.31
CCOC(=O)CCNc1n[nH]c(=O)[nH]c1=O	6.46
Cn1c(=O)c(C(=O)CN2CCOCC2)c(N)n(Cc2ccccc2)c1=O	5.4
CCCSC1=N/C(=C\C=C\c2ccco2)C(=O)S1	13.2
O=C(Cc1ccccc1)NCC(=O)N/N=C/c1ccc([N+](=O)[O-])s1	7.73
O=C(Nn1cnnc1)c1csc2ccccc12	0.0323
COc1cccc(C(=O)N2CCN(Cc3cn[nH]c3-c3ccc(F)cc3F)CC2)c1	0.769
O=P(O)(Oc1ccccc1)OC(c1ccccc1)C(F)(F)C(F)(F)F (centres unmarked)	12.6
CS(=O)(=O)N(CC(=O)N1CCOCC1)Cc1ccccc1	-2.81
O=c1[nH]c2ccc(S(=O)(=O)Nc3ccc(Cl)cc3)cc2o1	17
O=C1C2CCCN2C(c2ccncc2)N1c1ccc(Cl)c(Cl)c1 (centres unmarked)	15.8
NC(=O)CC(NC(=O)Cc1ccc(Br)cc1)c1ccc(N2CCC(Cc3ccccc3)CC2)c([N+](=O)[O-])c1 (centres unmarked)	7.53
CCn1cc(CN2CCC(n3nccc3NC(=O)c3cccc(F)c3)CC2)cn1	6.11
C=Cn1ccnc1P(=S)(c1ccccc1)c1nccn1C=C	18.5
O=C(Nc1c2c(nn1-c1ccccc1)CS(=O)(=O)C2)C1CCCC1	8.74
N/C(=N\OC(=O)c1ccco1)c1cccc([N+](=O)[O-])c1	18.2
Cn1ncc2c(Nc3cccc(Cl)c3)nc(Nc3cccc(Cl)c3)nc21	9.36
Nc1nc(SCC(=O)NCC2CCCO2)[nH]c(=O)c1NC(=O)c1ccc(F)c(F)c1 (centres unmarked)	18.5

SMILES	hERG current change (%, negative = inhibition) at 1uM [%]
O=C(CCCc1ccccc1)Nc1cccc([N+](=O)[O-])c1	14.1
O=[N+]([O-])c1ccc(N2CCN(c3ccccc3O)CC2)cc1	4.7
CCOc1ccccc1NC(=O)COC(=O)CC(C)(C)CC1=NS(=O)(=O)c2ccccc2N1	-18.6
CCC(C(=O)N1CCN(C(=O)c2ccco2)CC1)c1ccccc1 (centres unmarked)	11.4
COc1ccc2cc3[n+](cc2c1OC)CCc1cc2c(cc1-3)OCO2.[Cl-]	11
CC(C)Oc1ccc(S(=O)(=O)N2CCOCC2)cc1NC(=O)c1cc([N+](=O)[O-])ccc1N1CCOCC1	-7.01
CCOC(=O)c1cnc2c(-c3cccc(Br)c3)cnn2c1C	2.88
Cc1ccc(NC(=O)COc2ncnc3c(Cl)cc(Cl)cc23)cc1[N+](=O)[O-]	0.563
O=C(CN1C(=O)c2ccccc2S1(=O)=O)N1CCN(c2ccc(F)cc2)CC1	4.29
COc1ccc(-n2c(SCC(=O)N3CCCCC3)nnc2-c2cccnc2)cc1	10.2
CCC1CCCCN1CCCNC(=O)CN1C(=O)COc2ccccc21 (centres unmarked)	4.11
COc1ccc(CCn2nnnc2C(C(C)C)N2CCC(C(N)=O)CC2)cc1OC (centres unmarked)	3.01
CCC(=O)c1ccc(OCC(=O)OCC(=O)c2cc(C)n(C3CC3)c2C)cc1	6.74
O=C(NC1CCCCC1)C1COc2ccccc2O1 (centres unmarked)	9.05
O=c1c(-c2ccccc2)coc2c(CN3CCCC3)c(O)ccc12	8
Cc1ccc(C)c(CN2CCC(CNC(=O)Nc3ccc(C)c(F)c3)CC2)c1	13.2
Cc1cc(=O)n2nc(N3CCCC3C(=O)Nc3cccc(Cl)c3C)sc2n1 (centres unmarked)	12.5
COc1ccc([C@H]2[C@H](C(=O)C(C)(C)C)N3N=Cc4ccccc4C3C23C(=O)OC(C)(C)OC3=O)cc1 (some centres unmarked)	6.65
CN1CCN(C(=O)C2=C[C@H](c3ccc(C(F)(F)F)cc3)C[C@H](OCc3ccc(CO)cc3)O2)CC1	-3.63
CC(=O)Nc1ccc(S(=O)(=O)Nc2cc([N+](=O)[O-])ccc2C)cc1	15.5
COc1ccc2oc(C(=O)OCC(=O)N(CCC#N)c3ccccc3)c(C)c2c1	4.66
COc1ccc(CC(=O)N/N=C(\C)CC(=O)Nc2ccc(N(C)C)cc2)cc1OC	10.9

SMILES	hERG current change (%, negative = inhibition) at 1uM [%]
COc1ccccc1-n1cc(CN2CCN(CC=C(C)C)C(CCO)C2)cn1 (centres unmarked)	2.85
COCCCNC(=O)COC(=O)c1ccc(-c2nc3ccccc3s2)s1	-0.879
Cc1cccc(-n2c(O)c(/C=C3/C(c4ccccc4)=Nc4ccccc43)c(=O)[nH]c2=O)c1	13
O=C/C(=C\Nc1ccc(Br)cc1)c1nc2ccccc2o1	17.3
O=C(CCNS(=O)(=O)c1ccc(Br)cc1)NCCc1ccc(Cl)cc1	1.37
CCOC(=O)CSc1nnc(-c2ccco2)n1-c1ccc(C)cc1	-1.01
Cc1cccc(Oc2cc([N+](=O)[O-])cc3c2C(=O)Nc2ccccc2O3)c1	0.356
COc1ccc(C2N(C(=O)N3CCOCC3)CCN2S(=O)(=O)c2ccc(C)cc2)cc1 (centres unmarked)	14.1
Cc1ccc(C(=O)N2CCN(Cc3ccccc3)CC2)o1	-17
CC(C)n1nnc(-c2ccc(OCc3ccccc3F)cc2)n1	15.2
CNC(=O)CSc1nnc(-c2ccco2)n1-c1cccc(C)c1C	11.2
CCOc1cc(NC(=O)c2cccs2)c(OCC)cc1NC(=O)CCC(=O)NCc1ccccn1	1.61
O=c1[nH]c(=S)n(-c2cccc(Cl)c2)c(O)c1C=NCCN1CCNCC1	3.59
Cc1nn(CC(=O)O)c(C)c1[N+](=O)[O-]	9.13
CCNC(=O)COc1ccc(/C=C2\COc3ccccc3C2=O)cc1OC	5.98
Oc1cccc(Nc2ncnc3ccccc23)c1	0.105
COc1ccc(OCC(=O)Nc2cccc3ncccc23)cc1	4.01
N#CC1=C2Sc3ccccc3N2CCCC1=O	6.5
CCOC(=O)Nc1ccc(OCc2nnc3c4ccccc4c(C)nn23)cc1	7.57
COc1ccccc1CNC(=O)CCN=C1NS(=O)(=O)c2ccccc21	4.51
CCOC(=O)CC1CCCCN1C(=O)c1ccc2oc(CCc3ccccc3)nc2c1 (centres unmarked)	16.9
CC(C)(C)OC(=O)N1Cc2ccccc2C[C@H]1C(=O)NCC(=O)NC1CCCCC1	9.19

SMILES	hERG current change (%, negative = inhibition) at 1uM [%]
Cc1ccc(NC(=O)c2cc(N3C(=O)C=CC3=O)ccc2Cl)cc1C	13.8
CCCn1c(=O)[nH]c(=O)c2c1nc(-c1ccc3c(c1)OCCO3)n2CCN1CCOCC1	10.2
CC(Nc1nc(-c2cccc(Br)c2)cs1)c1nc2cc(Cl)c(N3CCCCC3)cc2n1CCOCCO (centres unmarked)	-1.32
COc1ccc(NC2CCCN(C(=O)CCN3CCCC3=O)C2)cc1 (centres unmarked)	14
COc1cc(OC)cc(C(=O)NCc2ccc(-n3cccc3)cc2)c1	-5.32
O=C(COC(=O)/C=C/c1ccc(Cl)c(Cl)c1)NC1CCS(=O)(=O)C1 (centres unmarked)	3.41
O=S(=O)(NC1CCCCC1)c1ccc(Br)s1	-2.31
COc1ccc(NC(C)C(=O)Nc2cc(C(F)(F)F)ccc2N2CCOCC2)c(OC)c1 (centres unmarked)	-1.3
O=C(C1CCC1)N1CCc2cc(S(=O)(=O)Nc3ccc4c(c3)OCO4)ccc21	2.39
COC(=O)c1cccc(-n2c(C)cc(C=O)c2C)c1C	8.12
Cc1ccccc1CC(=O)OCC(=O)Nc1ccc(C)c(S(=O)(=O)N2CCCCC2)c1	-1.62
Cc1cccc(NC(=O)CNC(=O)CNC(=O)Cc2ccccc2)c1	5.91
Cc1cnc(NC(=O)/C=C/c2ccc(Br)o2)s1	2.1
COc1cc2c(cc1OC)C(C(=O)O)C(c1ccc(C)o1)N(C)C2=O (centres unmarked)	5.67
Cc1ccc(/C(C#N)=C\c2cn(C)c3ccccc23)cc1	-3.21
O=C(CCc1nnc(CCC2CCCCC2)o1)NCCc1cccnc1	8.4
CCOC(=O)c1cnn(-c2nc(SC)nc3sc4c(c23)CCC4)c1N	5.94
COc1ccc(OC)c(NS(=O)(=O)c2ccc(Cl)nc2)c1	8.04
COc1ccc(-c2oc3ccc(N4CCOCC4)cc3c2C#CC2(O)CCCCC2)cc1	11.8
Cc1ccccc1Cn1cc(NS(=O)(=O)c2cn(C)nc2C)cn1	14.5
